Data taken from the supplement of paper PMC12217912.
The other results are listed elsewhere or left out. The full chains were built here from the parent and the listed change. Inactive controls read about 0.05.

B1: TEV protease; numbered along this chain (parent)
chain: MGESLFKGPRDYNPISSSICHLTNESDGHTTSLYGIGFGPFIITNKHLFRRNNGTLVVQSLHGVFKVKDTTTLQQHLVDGRDMIIIRMPKDFPPFPQKLKFREPQREERICLVTTNFQTKSMSSMVSDTSCTFPSGDGIFWKHWIQTKDGQCGSPLVSTRDGFIVGIHSASNFTNTNNYFTSVPKNFMELLTNQEAQQWVSGWRLNADSVLWGGHKVFMVKPEEPFQPVKEATQL

Variants of: B1
Assay: raw area under fraction-flipped curve 0-4 h after induction (AUC4h, not background-subtracted), DNA-recorder readout of cleavage of the substrate (dimensionless); higher = more cleavage of the substrate by the protease variant
Details: temperature: 34 °C; time window: 0-4 h after rhamnose induction
Protocol: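 In vivo DNA recorder in E. coli TOP10(DE3) ΔrhaA at 34 °C. Each TEVp single-site mutant (parent TEVp 0) is paired with a single-site variant of the 7-mer TEVs (canonical ENLYFQ|S). The substrate sits between flexible linkers in a Bxb1-sfGFP-TEVs-SsrA fusion, so cleavage stabilises Bxb1 and speeds flipping of a recombination array, read by NGS. The value is the raw area under the fraction-flipped curve over 0-4 h after rhamnose induction (AUC4h), with ≥20 reads per time point. It is not background-subtracted; inactive controls average about 0.047.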
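Note: Bxb1 expression induced with 0.2% (w/v) L-rhamnose at OD600 near 0.5, cultures sampled hourly, flipped fraction per protease–substrate barcode pair counted by paired-end Illumina sequencing.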

Variant	area with substrate ENLAFQS	area with substrate ENLCFQS	area with substrate ENLDFQS	area with substrate ENLEFQS	area with substrate ENLFFQS	area with substrate ENLKFQS	area with substrate ENLNFQS	area with substrate ENLPFQS	area with substrate ENLHFQS	area with substrate ENLIFQS	area with substrate ENLLFQS	area with substrate ENLRFQS	area with substrate ENLSFQS	area with substrate ENLVFQS	area with substrate ENLWFQS	area with substrate ENLMFQS	area with substrate ENLGFQS	area with substrate ENLQFQS	area with substrate ENLTFQS
R50S	0.0569	0.0702	0.0573	0.0707	0.0826	0.0828	0.0485	0.0593	–	–	–	–	–	–	–	–	–	–	–
R50T	0.0775	0.0468	0.0656	0.0587	0.0908	0.0829	0.0681	0.0603	0.0588	0.0672	0.0457	0.0726	0.0572	0.0611	0.0757	–	–	–	–
R51T	0.0833	0.0936	–	0.0666	0.0986	–	0.0525	0.0449	–	0.0903	–	–	–	0.0813	–	–	–	–	–
N53H	0.0641	0.0586	0.0828	0.0216	0.0761	0.0728	0.0649	0.0609	0.0626	0.0635	0.0551	0.0589	–	–	0.0648	0.0539	–	–	–
N53K	0.0848	0.0897	0.062	–	–	0.0677	0.0618	0.0705	0.07	–	0.0864	0.0631	0.076	0.0934	–	0.0742	0.0625	0.0643	0.0614
T55W	0.071	0.0647	0.0628	0.0314	0.0769	0.075	0.0548	–	0.0608	0.0777	–	0.057	0.0559	0.0505	0.0693	–	–	0.0644	–
V57F	0.0774	–	–	–	0.0829	0.0794	0.0663	0.0497	0.0381	0.0643	–	0.0606	0.0488	0.0952	0.0641	–	0.0804	–	–
V57H	0.0451	–	0.07	0.071	0.0704	0.0457	0.0576	0.0608	0.0536	0.0421	0.0802	0.0839	0.0581	0.101	–	–	–	–	0.0695
V58A	0.0594	–	–	–	–	–	–	–	–	–	–	0.0794	0.0526	–	–	–	–	0.0417	–
V58C	0.0632	0.0649	0.0678	–	0.0819	–	–	0.0614	0.0729	0.0826	0.0537	0.0985	0.0621	0.0627	–	–	–	–	–
Q59C	0.0824	–	0.0625	–	0.0844	0.066	0.0627	0.0571	0.0697	–	0.0757	–	–	–	–	0.0611	–	0.0936	–
Q59S	0.0631	–	0.0942	–	0.0983	0.0743	–	0.0498	0.0719	0.122	0.025	0.078	0.0719	0.0659	–	–	0.0428	–	–
Q59W	0.0614	0.0724	0.0637	–	0.0778	0.0852	0.0647	0.0604	0.0855	–	0.0729	–	0.0739	0.0722	0.0519	–	0.0802	0.0625	–
S60N	0.07	–	0.0631	–	0.048	0.0726	0.0671	0.056	0.0727	0.072	–	0.0668	0.0643	–	0.0522	–	0.0354	–	–
H62G	0.0732	0.0725	0.0673	0.0566	0.0734	0.0457	0.0731	0.0733	0.0706	0.0827	0.0811	–	0.0759	0.106	–	–	0.0797	–	0.0609
H62P	0.0526	–	0.0558	0.0597	0.0838	0.0635	0.0551	–	0.0583	–	–	–	–	–	0.0586	–	–	0.0556	–
H62Q	0.0624	–	–	0.0786	0.0494	–	0.0731	–	0.0614	–	0.081	0.0378	0.0627	–	–	–	0.0618	–	–
F65K	0.0632	–	–	0.116	–	–	0.0669	–	–	–	–	0.0658	0.0604	0.0695	–	–	0.0578	–	–
K68S	0.061	–	–	–	0.0803	0.0795	0.0818	0.0617	–	–	0.0628	0.0698	0.0726	–	–	–	–	–	0.0738
D69V	0.0825	0.0647	0.0666	–	0.0669	0.0616	0.0657	0.055	0.0614	0.0749	0.0528	0.0692	–	–	0.0582	–	–	–	–
T72M	0.0821	–	0.0884	–	0.0839	–	0.0456	–	0.0526	0.0253	0.0502	–	0.0709	–	0.0783	–	–	–	–
Q74L	0.0723	0.0682	0.0675	0.0591	–	–	–	0.101	0.0837	0.0761	0.0058	–	–	–	–	–	–	–	–
Q75S	0.0763	–	0.0634	–	0.0923	0.0702	0.0594	–	0.07	–	–	–	–	0.0726	–	0.0707	–	0.0638	0.0686
Q75Y	0.0448	–	0.0623	0.0634	0.0725	0.0453	0.0457	0.0597	0.0522	0.0647	0.0558	0.0613	0.0678	–	0.0544	0.0648	0.0548	0.0601	–
R81Q	0.0582	0.0369	0.0774	–	0.0732	–	0.0699	0.0647	–	–	0.0715	–	0.0468	–	–	–	–	–	–
D82T	0.0552	–	0.0646	0.0628	0.0432	0.0543	0.0467	0.0713	0.0542	0.0433	0.0638	0.0503	0.0833	0.045	0.0557	–	–	–	0.0434
M83H	0.049	0.0532	0.0584	0.0638	0.0558	0.0555	0.0576	0.0525	0.0519	–	0.0566	0.0594	0.0548	–	0.0342	–	0.067	–	–
I84K	0.0595	–	0.0652	0.064	–	0.0649	–	0.0599	0.0613	–	–	0.0646	–	–	0.0618	0.0519	–	–	–
I84L	0.0691	0.0502	0.0619	0.0383	0.116	–	0.0619	–	0.0594	–	–	0.0777	0.0619	–	0.0661	–	–	–	–
I84Y	0.0331	0.0554	0.0694	0.0566	0.0671	0.0587	0.0609	0.0527	0.0504	–	–	0.0628	–	–	0.0633	–	–	0.0532	–
